# About 40 (0.04%) of roughly 110,000 compounds were called active. This list was built around the results that the source calls inconclusive (neither active nor inactive); the mix of calls is not that of the screen. Calls come from the whole dose curve; as a rule, active = well fitted curve in the direction sought with a large enough effect in the signal ratio (not every such curve was filed as active); inconclusive = small, poorly fitted or top-dose-only effect, or a change in a side signal; inactive = flat fitted curve, though single readings scatter; the % refers to the signal ratio. Potencies beside an inconclusive call are fits to weak or partial responses and may not hold up.
# Assay: IkB Signaling;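 for IkBa stabilization activation: 0% = basal untreated cells and 100% = reference inhibitor full response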
# Details: ABC-DLBCL IkBa-CBG/CBR dual luciferase ratio (green luciferase fused to IkBa over red control in OCI-Ly3 lymphoma cells), 4 h; IkBa stabilization activation: at 57.1 µM (top of the series), scaled: untreated 0%, proteasome inhibitor 100% unless noted
# Procedure, shortened: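 Luminescence ratio of IκBα-fused green versus native red beetle luciferase in OCI-Ly3 cells, 4 h post-doxycycline with compound; red signal alone, scaled from basal (0%) to zero light (-100%), flagged nonspecific or cytotoxic effects.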
# Potency is the fitted concentration of half-maximal effect.
SMILES,IkBa stabilization activation,Potency
CCOc1ccc(NC(=O)CCNS(=O)(=O)c2ccc3c(c2)CCCC(=O)N3)cc1,inconclusive: 0.597% [signal inhibitor],
Cc1ccc2cc(CCNC(=O)c3ccc(Br)o3)c(=O)[nH]c2c1,inconclusive: 2.95% [signal inhibitor],
CCOc1ccc(NC(=O)c2c(NCc3cccnc3)sc3c2CCC(C)C3)cc1 (stereo not given),inconclusive: -3.1% [signal inhibitor],
CC(=O)c1sc(NC(=O)c2c(-c3ccccc3)c(-c3ccccc3)nn(C)c2=O)nc1C,inconclusive: -0.335% [signal inhibitor],
CSCSC1=C(C#N)C(c2ccccc2Cl)C(C(C)=O)=C(C)N1 (stereo not given),inconclusive: -4.06% [signal inhibitor],
COc1ccc(-n2c(=O)c(-c3cccs3)nc3cnc(OC)nc32)cc1,"inactive: -1.75% [at 11.4 µM, scaled: untreated 0%, proteasome inhibitor 100%]",
CC1CCC(N2CC(=O)N(CCC3=CCCCC3)C(c3ccc(F)cc3)C2=O)CC1 (stereo not given),inconclusive: -2.03% [signal inhibitor],
O=C(CN1CCC(n2nnc3ccccc32)CC1)Nc1ccc2c(c1)CCC2,inconclusive: 2.94% [signal inhibitor],
CCn1c(SCc2nc3ccccc3s2)nc2cc(S(=O)(=O)N3CCOCC3)ccc21,inconclusive: 6.28% [signal inhibitor],
COc1cccc(C(=O)Nc2nc3ccc(S(=O)(=O)N4CCCC4)cc3s2)c1,inconclusive: 2.14% [signal inhibitor],
COc1ccccc1NC(=O)CSc1ncn[nH]1,inactive,
O=C(Nc1ccc(Br)cc1)c1cc(-c2cccs2)nc2ccccc12,inconclusive: 19.9% [signal activator],
CC1CCC(N2CC(=O)N(C3CCCCC3)C(c3ccc(Cl)cc3)C2=O)CC1 (stereo not given),inactive,
Cc1ccc(NS(=O)(=O)c2ccc(-c3cnc(C4CC4)o3)cc2)cc1N(C)C,inactive,
COc1ccc(-c2cc(C(=O)Oc3ccc(C)cc3)c3ccccc3n2)cc1,inactive,
CC(C)Oc1ccc(C(=O)N2CCC(c3nc4ccccc4o3)CC2)cc1,inconclusive: 0.569% [signal inhibitor],
O=C(CCC(=O)c1cccs1)Nc1ccccc1F,,"inconclusive: 31.6 µM [signal inhibitor, partial curve]"
Nc1nc(NCc2c(F)cccc2Cl)nn1-c1ccccc1,inconclusive: 8.51% [signal inhibitor],
CC(=O)Nc1ccc(NC(=O)CSc2nccn2Cc2ccc3c(c2)OCO3)cc1,inactive,
O=C1CSC2(C(=O)N(Cc3ccccc3F)c3ccccc32)N1c1cccc(C(F)(F)F)c1 (stereo not given),inconclusive: -2.84% [signal inhibitor],
CC(C)(C)C1CCc2onc(C(=O)NCc3ccc(F)cc3)c2C1 (stereo not given),inconclusive: 15.3% [signal inhibitor],
c1coc(-c2nc3nc4ccccc4nc3n2CC2CCCO2)c1 (stereo not given),inconclusive: 13.3% [signal inhibitor],
Cc1ccc(S(=O)(=O)c2cnc(SCC(=O)Nc3ccc4c(c3)OCCO4)[nH]c2=O)cc1Cl,inconclusive: 0.867% [signal inhibitor],

SMILES,IkBa stabilization activation,Potency
Cc1ccccc1-c1ccnc2[nH]n(-c3ccccc3)c(=O)c12,,"inconclusive: 20 µM [signal inhibitor, partial curve]"
Cc1cnc(CNc2ncnc3ccc(-c4ccccc4Cl)cc23)cn1,"inactive: 5.67% [at 11.4 µM, scaled: untreated 0%, proteasome inhibitor 100%]",
Cn1cnnc1SCC(=O)NCc1cccc(C(F)(F)F)c1,inactive,
COc1ccccc1C(=O)Nc1cccc(C(=O)OCc2cc(=O)n3nc(C4CC4)sc3n2)c1,inconclusive: -0.101% [signal inhibitor],
O=C(Nc1ccc(OC(F)(F)F)cc1)C(Cc1ccccc1)NS(=O)(=O)c1cccc2nsnc12 (stereo not given),inconclusive: -1.01% [signal inhibitor],
CC1CCCN(CCCNC(=O)c2ccc3c(c2)N(Cc2cccc(Cl)c2)C(=O)c2ccccc2S3(=O)=O)C1 (stereo not given),inactive,
Cc1ccc(C)c(CNC(=O)c2ccc3c(c2)nc2n3CCOC2)c1,inconclusive: 0.722% [signal inhibitor],
COC(=O)c1ccc(C2c3c(oc4ccc(C)cc4c3=O)C(=O)N2Cc2ccc3c(c2)OCO3)cc1 (stereo not given),inactive,
CCCc1cc(C(=O)Nc2sc3c(c2C#N)CCC3)no1,inactive,
COc1cccc(CNC(=O)Cn2ccc3cc(S(=O)(=O)N4CCCC4)ccc32)c1OC,inconclusive: 0.614% [signal inhibitor],
CCOC(=O)c1c(Nc2ccc(O)cc2)nnc(-c2ccccc2)c1-c1ccccc1,inconclusive: 0.921% [signal inhibitor],
COc1ccc(CNC(=O)c2cc3cc4ccc(C)cc4nc3o2)cc1,inactive,
O=C(Cc1ccccc1)Nc1c(C(=O)c2ccccc2)oc2ccccc12,inactive,
Cc1cc(Br)ccc1OCC(=O)N(Cc1nc(-c2ccccc2)no1)C(C)C,inconclusive: 12.5% [signal inhibitor],
CCc1ccc(C(=O)COC(=O)C(Cc2c[nH]c3ccccc23)NC(=O)c2ccc(CC)cc2)cc1 (stereo not given),inconclusive: 2.59% [signal inhibitor],
Cc1ccc(NC(=O)CSc2nnc(-c3nnn(-c4ccc(F)cc4)c3C)o2)cc1Br,inconclusive: 9.18% [signal inhibitor],
Cc1nc(-c2cccc(F)c2)sc1CCNC(=O)c1c(F)cccc1Cl,inconclusive: 2.2% [signal inhibitor],
COc1cccc(N2CCN(C(=O)c3cc4c(s3)-c3c(C)cccc3OC4)CC2)c1,,inconclusive: 12.6 µM [signal inhibitor]
c1ccc(CSCc2cn3ccsc3n2)cc1,inactive,
Cc1ccc(OCC(=O)Nc2nonc2-c2ccc(C)c(C)c2)cc1C,inactive,
COc1cc(C(=O)Nc2ccc3c(c2)OCCO3)c(-n2cnnn2)cc1OC,inactive,
Cc1ccc(NC(=O)CN2C(=O)COc3ccc(S(=O)(=O)N4CCCCCC4)cc32)cc1Cl,inconclusive: 0.872% [signal inhibitor],
